Reference: PubChem BioAssay AID1347120 (National Center for Advancing Translational Sciences (NCATS), 2019)
Hit rate of the full screen: of about 390,000 compounds, about 930 (0.24%) were called active. The shares of active, inactive and inconclusive entries below differ from those in the screen. Calls come from the whole dose curve; as a rule, active = well fitted activation curve with a large enough effect; inconclusive = small, poorly fitted or top-dose-only effect; inactive = no such curve, though single readings can be large or run the other way. A potency beside an inconclusive call is a rough fit, not a confirmed value.

Assay: qHTS for Suppressors of FUS Proteinopathy: Primary screen using FUS-linked yeast assay; note: nearly all actives have a fitted effect of over 55% in size;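 for growth rescue (activation): plate controls were DMSO vehicle for no effect and reference control for full effect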
Settings: S. cerevisiae FUS-expressing, OD600, 24 h; Potency: growth rescue; growth rescue (activation): at 76.6 µM (top of the series)
Method in brief: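 Toxicity suppression screen in FUS-yeast. Cells induced with 2% galactose, starting OD 0.005, treated 24hr at 30C with compounds at multiple final concentrations; growth by OD600.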
Potency is the fitted concentration of half-maximal effect; tags give direction and shape of the fitted curve.

Row | Compound | Potency | growth rescue (activation)
1 | CC1Cc2ccccc2N1C(=O)Cn1c(=O)oc2cc(S(=O)(=O)NC3CCCC3)ccc21 (stereo not drawn) | inconclusive: 31.6 µM [activator, partial curve, poor fit] | 
2 | Cc1ccc(C)c(N2CCN(C(c3ccccc3)c3nnc(-c4ccccc4)o3)CC2)c1 (stereo not drawn) | inconclusive: 44.7 µM [activator, single point] | 
3 | CCN1CCc2c(sc(-n3cccc3)c2C(CCC(C)C)NC(=O)NCCC(=O)OC)C1 (stereo not drawn) | inconclusive: 8.91 µM [activator, single point] | 
4 | CC[N+](CC)(CC)CCOc1ccc(/C=C/c2ccccc2)cc1 | inactive | 
5 | C=CC[C@@H](CC(=O)N[C@H](CO)Cc1ccccc1)C(=O)NC[C@H](OC(=O)[C@@H](CC=C)Cc1ccc(F)cc1)c1ccccc1 | inconclusive: 17.8 µM [activator, single point] | 
6 | O=C1/C(=C\c2ccc(O)c(O)c2)SC(=S)N1Cc1ccccc1 | inactive | 
7 | CC(C)CC(=O)Nc1ccc(C(=O)Cn2c(=O)oc3ccccc32)cc1 | inactive | 
8 | Cc1ccc(C)c(Cn2c(SCC(=O)NCc3ccccc3)nc3ccccc32)c1 | inactive | 
9 | C=CCC[C@@H](Cc1ccc(F)cc1)C(=O)OC[C@H](Cc1c[nH]c2ccccc12)NC(=O)[C@@H](CC=C)CC(=O)NCCO | inconclusive: 31.6 µM [activator, single point] | 
10 | O=S(=O)(Nc1ccc(-c2cn3c(n2)SCC3)cc1)c1ccccc1F | inconclusive: 22.4 µM [activator, partial curve, poor fit] | 
11 | COc1ccc(C(=O)Nc2ccc(-c3nc4ccccc4s3)c(Cl)c2)cc1Cl | inconclusive: 11.2 µM [activator, single point] | 
12 | COc1ccc(Cl)cc1NC(=O)CN(C)C(=O)CN1C(=O)NC(C)(c2ccc3ccccc3c2)C1=O (stereo not drawn) | inconclusive: 14.1 µM [activator, partial curve, poor fit] | 
13 | COc1cccc(C2CC(c3ccccc3Cl)n3nnnc3N2)c1 (stereo not drawn) |  | inconclusive: 85.3% [activator]
14 | O=C(NCCO)c1ccc(-c2nnc(Nc3ccc(OC(F)(F)Cl)cc3)c3ccccc23)cc1 | inconclusive: 17.8 µM [activator, partial curve, poor fit] | 
15 | O=C(NCCc1ccc(Cl)cc1)c1cccs1 | inconclusive: 0.794 µM [activator, partial curve, poor fit] | 
16 | CCOC(=O)[C@@]12CN(C(=O)OC(C)(C)C)CC=C1N(Cc1ccc(OC)cc1)C(=O)[C@H]2CC(=O)NCc1cccc2ccccc12 | inconclusive: 28.2 µM [activator, partial curve, poor fit] | 
17 | COc1cccc(C(=O)Nc2nc(-c3nnn(-c4cccc(Cl)c4C)c3C)ns2)c1 | inactive | 
18 | O=C(Nc1ccc2c(c1)OCCO2)C(c1ccnc2ccccc12)N1CCN(c2ccc(C(F)(F)F)cn2)CC1 (stereo not drawn) | inconclusive: 10 µM [activator, partial curve, poor fit] | 
19 | COc1ccc2cc3cc(C(=O)NCc4ccco4)oc3nc2c1 | inconclusive: 10 µM [activator, partial curve, poor fit] | 
20 | C[C@@H](NC(=O)[C@H]1O[C@@H](n2cnc3c(N)ncnc32)[C@H](O)[C@@H]1O)c1cccc2ccccc12 | inactive | 
21 | COc1ccc(C(C)(NC(C)=O)c2nc(-c3cccc(NC(C)=O)c3)cs2)cc1 (stereo not drawn) | inactive | 

Row | Compound | Potency | growth rescue (activation)
22 | N#Cc1cccc(NC(=O)CNc2cc(S(=O)(=O)N3CCOCC3)ccc2N2CCCC2)c1 | inconclusive: 31.6 µM [activator, single point] | 
23 | COC(=O)C1CCN(C2CN(Cc3ccc(F)cc3)S(=O)(=O)C2)CC1 (stereo not drawn) | inactive | 
24 | CC1(OC(=O)C2CCCC2)C(=O)C=C2C=C(c3ccsc3)N(CCc3c[nH]c4ccccc34)C=C2C1=O (stereo not drawn) | inconclusive: 50.1 µM [activator, single point] | 
25 | Cc1ccc(C(=O)O)cc1NC(=O)CN1C(=O)C2C3c4ccccc4C(Br)(c4ccccc43)C2C1=O (stereo not drawn) | inconclusive: 39.8 µM [activator, partial curve, poor fit] | 
26 | CCOC(=O)Cc1csc(NC(=O)COc2ccc(C)cc2)n1 | inactive | 
27 | CCOC(=O)N1CCC(c2cc(=O)n(-c3ccccc3)[nH]2)CC1 | inconclusive: 50.1 µM [activator, single point] | 
28 | Cc1ccc(NC(=O)Cn2nc(C(F)(F)F)c3c2CCCC3)cc1 | inconclusive: 50.1 µM [activator, single point] | 
29 | CC1=C(C(=O)N2CCOCC2)CC(CC(=O)NCc2cccc3ccccc23)C(=O)N1Cc1ccc(C(C)(C)C)cc1 (stereo not drawn) | inconclusive: 44.7 µM [activator, single point] | 
30 | O=C(c1cccnc1)N1CCc2ccccc21 | inactive | 
31 | CCOc1ccc2c(c1)NC(c1ccc(OCC)c(OCC)c1)=NC(c1ccc(F)cc1)=N2 | inconclusive: 25.1 µM [activator, partial curve, poor fit] | 
32 | CCOc1ccccc1Nc1nnc(SCC(=O)NC(Cc2c[nH]c3ccccc23)C(=O)O)s1 (stereo not drawn) | inconclusive: 22.4 µM [activator, partial curve, poor fit] | 
33 | CCCCOc1ccc(NC(=S)Nc2cc(C)nc(SCCCC)n2)cc1 | inconclusive: 44.7 µM [activator, partial curve, poor fit] | 
34 | COCc1[nH]c(=S)c(C#N)cc1C(=O)OC | inconclusive: 28.2 µM [activator, single point] | 
35 | CC(C)(C)c1ccc(OCCn2nc(C(=O)O)c3ccccc3c2=O)cc1 | inconclusive: 28.2 µM [activator, single point] | 
36 | CCOC(=O)N1CCN(C(=O)C[C@H]2C[C@@]3(C(=O)OC)C(=C[C@H](C(C)(C)C)O[C@@H]3C)N(Cc3cccc4ccccc34)C2=O)CC1 | inconclusive: 17.8 µM [activator, partial curve, poor fit] | 
37 | CC(C)C[C@@]12C(=O)N(c3cccc(F)c3)C(=O)N1[C@H](c1ccc(Cl)cc1)[C@@H]1C(=O)N(C3CCCCC3)C(=O)[C@@H]12 | inconclusive: 20 µM [activator, single point] | 
38 | CC(C)Oc1ccc(S(=O)(=O)N2CCCCC2)cc1NC(=O)CN1CCCC1c1cccs1 (stereo not drawn) | inconclusive: 28.2 µM [activator, single point] | 
39 | CCc1ccccc1NC(=S)N=Nc1c(O)n(C)c2ccc(S(=O)(=O)N3CCOCC3)cc12 | inactive | 
40 | CC(=O)N1CCCN(C(=O)C2CCN(c3ncnc4c3sc3cccc(F)c34)CC2)CC1 | inactive | 
41 | CC(C)CC(NC(=O)OC(C)(C)C)c1cn([C@@H](CCCCNC(=O)OC(C)(C)C)C(=O)N2CCN(C(=O)OC(C)(C)C)CC2)nn1 (stereo partly drawn) | active: 7.94 µM | 
42 | Cc1ccc(C)c(-n2nnnc2SCC(=O)NCC2CCCO2)c1 (stereo not drawn) | inconclusive: 10 µM [activator, full curve] | 

Row | Compound | Potency | growth rescue (activation)
43 | Cc1ccc(OCc2nnc(SC3CCc4ccccc4C3=O)n2C)cc1 (stereo not drawn) | inconclusive: 15.8 µM [activator, partial curve] | 
44 | Cc1ccc2occ(CC(=O)Nc3c(C)cccc3C)c2c1 | inactive | 
45 | COC(=O)c1ccccc1NC(=O)N1CCN(S(=O)(=O)c2ccc(Cl)cc2)CC1 | inconclusive: 50.1 µM [activator, single point] | 
46 | O=C(/C=C/c1cn(-c2ccccc2)nc1-c1cccnc1)N1CCCC1 | inactive | 
47 | O=C(CNS(=O)(=O)c1ccccc1Br)OCC(=O)N1CCc2ccccc21 | inconclusive: 35.5 µM [activator, single point] | 
48 | Cc1ccc([N+](=O)[O-])cc1-c1[nH]c(-c2ccc(O)c(O)c2)nc1-c1ccccc1 | active: 20 µM | 
49 | O=C(Nc1nc(-c2ccccn2)cs1)C1CC(=O)N(c2ccc3c(c2)OCCO3)C1 (stereo not drawn) | inconclusive: 20 µM [activator, partial curve, poor fit] | 
50 | CC(Oc1ccccc1)C(=O)Nc1nnc(S(=O)(=O)N(C)c2ccccc2)s1 (stereo not drawn) | inactive | 
51 | Cc1ccc(C)n1C1CCS(=O)(=O)C1 (stereo not drawn) | inactive | 
52 | O=C(/C=C/c1ccncc1)c1ccc(NC(=O)c2ccccc2F)cc1 | inconclusive: 35.5 µM [activator, single point] | 
53 | Cc1onc(-c2ccc(Cl)cc2)c1-c1ccn(S(=O)(=O)c2ccccc2)n1 | inactive | 
54 | CN(C)CCNC(=O)C(=O)Nc1ccc2c(c1)N(S(=O)(=O)c1cccs1)CCC2 | inactive | 
55 | CN(C)S(=O)(=O)c1ccc(NC(=O)c2ccc3ncsc3c2)cc1 | inactive | 
56 | C[C@@H]1CN([C@H](C)CO)C(=O)c2c(c3ccccc3n2C)-c2ccccc2CO[C@@H]1CN(C)S(=O)(=O)c1cccs1 | inconclusive: 25.1 µM [activator, partial curve, poor fit] | 
57 | Cc1cc(C)c(NC(=O)CS(=O)CC(=O)Nc2ccc(N3CCOCC3)cc2)c(C)c1 (stereo not drawn) | inactive | 
58 | O=C(CCCCCCN1C(=O)c2ccccc2C1=O)N1CCC(c2ccccc2)C1 (stereo not drawn) | inconclusive: 31.6 µM [activator, partial curve, poor fit] | 
59 | COc1cc(-c2nc3cnccn3c2Nc2ccccc2)ccc1O | inconclusive: 50.1 µM [activator, single point] | 
60 | O=C(NCCC1=CCCCC1)c1ccc2c(c1)ncn2-c1cccc(Cl)c1 | inactive | 
61 | CCc1ccccc1NC(=O)CSc1ncc2c(n1)-c1ccccc1N(C)S2(=O)=O | inactive | 
62 | COc1ccc(NC(=O)Cn2c(-c3ccc(OC)cc3)cn(-c3ccc(C)cc3)c2=O)cc1 | inconclusive: 35.5 µM [activator, single point] | 
63 | O=S(=O)(Nc1cccc(-c2cn3cccnc3n2)c1)c1ccc(-c2ccccc2)cc1 | inconclusive: 35.5 µM [activator, single point] | 
